We go through 63 compounds from the supplement of paper PMC9446081.

Hit rate of the full screen: of about 39,000 compounds, about 220 (0.56%) showed activity. This is one part of the list.
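Further: static incubation at 37 °C against the wild-type strain, values averaged over two biological replicates.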

In this test the test system is Escherichia coli K-12 BW25113. Put plainly: relative growth (OD600 normalised to plate interquartile mean) (fraction); higher = less growth inhibition, active = 0.2 or less. The settings on record: 50 µM; LB; incubation time: overnight (16-24 h).
Turning to `CC(C)NC(=O)Nc1ccc2c(c1)C(=O)N([C@H](C)CO)C[C@@H](C)[C@@H](CN(C)Cc1ccc(C(=O)O)cc1)O2`, the relative growth was inactive: 1.01.

Consider `Cc1noc(C)c1S(=O)(=O)N(C)C[C@H]1Oc2ccc(NS(C)(=O)=O)cc2C(=O)N([C@H](C)CO)C[C@H]1C`, for which the relative growth is inactive: 0.977.

Take `CC(=O)NC(CS)C(=O)O` (stereo not drawn): the relative growth is inactive: 1.09.

Turning to `COc1ccc(CN(C)C[C@H]2OCCCC[C@@H](C)Oc3ccc(NC(=O)Nc4ccccc4)cc3C(=O)N([C@@H](C)CO)C[C@@H]2C)cc1`, the relative growth was inactive: 1.02.

As to `C[C@@H]1CCCCO[C@H](CN(C)Cc2ccc(C(=O)O)cc2)[C@H](C)CN([C@@H](C)CO)C(=O)c2cc(NC(=O)NC3CCCCC3)ccc2O1`, the relative growth is inactive: 0.986.

Consider `C[C@H]1CN([C@@H](C)CO)C(=O)Cc2cc(NC(=O)CCCCCC(=O)Nc3ccccc3N)ccc2O[C@H]1CN(C)S(C)(=O)=O`, for which the relative growth is inactive: 0.974.

As for `C[C@H](CO)N1C[C@H](C)[C@@H](CN(C)Cc2ccncc2)Oc2ccc(NS(=O)(=O)c3cn(C)cn3)cc2CC1=O`, the relative growth is inactive: 0.954.

`COc1ccc(S(=O)(=O)Nc2ccc3c(c2)CC(=O)N([C@@H](C)CO)C[C@@H](C)[C@@H](CN(C)C)O3)cc1`: the relative growth was inactive: 1.02.

As to `CC(C)(C)c1ccc(OC[C@@H](O)CN)cc1`, the relative growth was inactive: 1.04.

As for `Cn1cnc(S(=O)(=O)N2C[C@@H](O)COC[C@@H]3O[C@H](CC(=O)NCc4cc(F)cc(F)c4)CC[C@H]32)c1`, the relative growth was inactive: 0.987.

Regarding `COc1ccc2c3c(n(c2c1)C)[C@H](CO)N(C[C@]13CN(CC2CCOCC2)C1)C(=O)c1ccc(cc1)F`, the relative growth is inactive: 1.

Turning to `C[C@@H]1CCCCO[C@@H](CN(C)Cc2ccccc2)[C@@H](C)CN([C@@H](C)CO)C(=O)c2cc(NC(=O)Nc3ccccc3)ccc2O1`, the relative growth was inactive: 1.01.

Consider `CCCC(=O)Nc1ccc2c(c1)C(=O)N(C)[C@H]1CC[C@@H](CC(=O)NCCN3CCCCC3)O[C@H]1CO2`, for which the relative growth is inactive: 0.987.

With `C[C@H](CO)N1C[C@H](C)[C@H](CN(C)S(=O)(=O)c2ccc(F)cc2)Oc2ccc(NS(=O)(=O)c3cccs3)cc2C1=O`, the relative growth is inactive: 0.971.

Turning to `C[C@@H]1CCCCO[C@@H](CN(C)C(=O)Nc2ccccc2)[C@@H](C)CN([C@H](C)CO)C(=O)c2cc(NS(=O)(=O)c3ccc(F)cc3)ccc2O1`, the relative growth was inactive: 0.999.

As to `COC(=O)C[C@H]1CC[C@@H](N)[C@H](CO)O1`, the relative growth was inactive: 0.999.

Take `O=C(C[C@@H]1C[C@H]2c3cc(NC(=O)Cc4ccncc4)ccc3O[C@H]2[C@@H](CO)O1)NCc1ccc2c(c1)OCO2`: the relative growth is inactive: 1.02.

As for `Cc1noc(C)c1NC(=O)Nc1cccc2c1O[C@H](CN(C)S(=O)(=O)c1cn(C)cn1)[C@H](C)CN([C@H](C)CO)C2=O`, the relative growth is inactive: 1.01.

Consider `COCCC(=O)N1C[C@H]2CN(c3cnn(C)c3)C(=O)[C@@H]2C1`, for which the relative growth was inactive: 1.04.

For `COc1ccc(NC(=O)N(C)C[C@H]2OCCCC[C@@H](C)Oc3ccc(NC(=O)Nc4ccc(F)cc4)cc3C(=O)N([C@H](C)CO)C[C@@H]2C)cc1`, the relative growth is inactive: 1.03.

In the case of `CC(=O)N[C@@H](Cc1ccccc1)C(=O)NN`, the relative growth is inactive: 0.987.

Consider `C[C@@H]1CCCCO[C@@H](CN(C)CC2CC2)[C@H](C)CN([C@@H](C)CO)C(=O)c2cc(NC(=O)Nc3ccc(C(F)(F)F)cc3)ccc2O1`, for which the relative growth was inactive: 0.974.

Regarding `Cc1noc(C)c1NC(=O)Nc1ccc2c(c1)C(=O)N([C@H](C)CO)C[C@H](C)[C@@H](CN(C)C(=O)Nc1c(C)noc1C)OCCCC[C@@H](C)O2`, the relative growth is inactive: 0.998.

Turning to `C[C@H](CO)N1C[C@H](C)[C@@H](CN(C)Cc2ccncc2)Oc2ccc(NC(=O)Nc3cccc4ccccc34)cc2C1=O`, the relative growth is inactive: 0.987.

`Cc1noc(C)c1NC(=O)Nc1cccc2c1O[C@@H](CN(C)C(=O)Nc1cccc3ccccc13)[C@@H](C)CN([C@H](C)CO)C2=O`: the relative growth was inactive: 0.985.

As for `O=C1N(Cc2ccccc2)Cc2ccccc2C[C@@]12N=C(c1ccc(OCCCO)cc1)O[C@H]2c1ccccc1`, the relative growth was inactive: 0.994.

For the compound `CC(C)NC(=O)N(C)C[C@H]1Oc2ccc(NS(=O)(=O)c3cn(C)cn3)cc2C(=O)N([C@H](C)CO)C[C@H]1C`, the relative growth is inactive: 1.02.

Take `CC(C)NC(=O)Nc1ccc2c(c1)C(=O)N([C@@H](C)CO)C[C@@H](C)[C@@H](CN(C)S(=O)(=O)c1cn(C)cn1)O2`: the relative growth was inactive: 0.968.

Regarding `COc1cccc(S(=O)(=O)N(C)C[C@@H]2Oc3ncc(-c4cccc(F)c4)cc3C(=O)N([C@H](C)CO)C[C@@H]2C)c1`, the relative growth was inactive: 1.01.

`NCC[C@H]1CC[C@H](NC(=O)Nc2ccc(F)cc2)[C@H](CO)O1`: the relative growth was inactive: 1.01.

Take `CO[C@@H]1CN(C)C(=O)c2ccc(NC(=O)c3ccc(F)cc3)cc2OC[C@@H](C)N(C(=O)CN(C)C)C[C@H]1C`: the relative growth is inactive: 0.985.

Take `CS(=O)(=O)N1CCOC[C@]2(CN(c3ncccn3)CCO2)C1`: the relative growth was inactive: 1.03.

In the case of `Cc1noc(C)c1NC(=O)Nc1ccc2c(c1)C(=O)N([C@H](C)CO)C[C@@H](C)[C@H](CN(C)C(=O)Nc1ccc(C(F)(F)F)cc1)OCCCC[C@H](C)O2`, the relative growth is inactive: 1.04.

For the compound `Cc1noc(C)c1S(=O)(=O)Nc1ccc2c(c1)CC(=O)N([C@H](C)CO)C[C@@H](C)[C@H](CN(C)S(=O)(=O)c1cccs1)O2`, the relative growth was inactive: 1.01.

In the case of `CN1C(=O)c2cc(NC(=O)c3cccs3)ccc2OC[C@H]2O[C@@H](CC(=O)NCCN3CCCCC3)CC[C@@H]21`, the relative growth was inactive: 1.01.

With `C[C@@H]1CN([C@H](C)CO)C(=O)c2cc(NC(=O)Cn3cnnn3)ccc2O[C@H]1CN(C)Cc1ccncc1`, the relative growth is inactive: 0.871.

For the compound `O=C(O)CN(CCc1ccccc1)CC(=O)O`, the relative growth is inactive: 1.

For the compound `CN(C)CCCNC(=O)C[C@@H]1CC[C@@H]2[C@H](COC[C@H](O)CN2S(=O)(=O)c2ccccc2)O1`, the relative growth is inactive: 1.02.

Regarding `CSC[C@H](N)C(=O)O`, the relative growth is inactive: 0.9.

In the case of `C[C@@H]1CN([C@@H](C)CO)C(=O)c2cccc(NC(=O)Nc3cccc4ccccc34)c2O[C@H]1CN(C)C(=O)Nc1cccc2ccccc12`, the relative growth was inactive: 1.01.

As for `C[C@@H]1CN([C@@H](C)CO)C(=O)Cc2cc(NC(=O)CCN3CCOCC3)ccc2O[C@@H]1CN(C)Cc1ccc(C(=O)Nc2ccccc2N)cc1`, the relative growth was inactive: 0.989.

For `CCn1c2c(c3cc(C4CCCCC4)ccc31)CCCC2=O`, the relative growth is inactive: 1.03.

For the compound `Cn1cnc(S(=O)(=O)N2C[C@@H](O)COC[C@H]3O[C@@H](CC(=O)NCc4cc(F)cc(F)c4)CC[C@@H]32)c1`, the relative growth is inactive: 0.977.

In the case of `COc1ccc(NC(=O)N(C)C[C@@H]2Oc3ccc(NC(=O)CCN4CCOCC4)cc3CC(=O)N([C@@H](C)CO)C[C@H]2C)cc1`, the relative growth is inactive: 0.989.

In the case of `C[C@@H]1CN([C@@H](C)CO)C(=O)c2c(c3ccccc3n2C)-c2ccccc2CO[C@H]1CN(C)S(=O)(=O)c1cn(C)cn1`, the relative growth was inactive: 0.995.

For the compound `C[C@@H]1CN([C@H](C)CO)C(=O)c2cc(NC(=O)C3CC3)ccc2O[C@@H]1CN(C)S(=O)(=O)c1cccs1`, the relative growth was inactive: 0.996.

For `COc1ccc(NC(=O)N(C)C[C@H]2Oc3ccc(NS(C)(=O)=O)cc3CC(=O)N([C@@H](C)CO)C[C@H]2C)cc1`, the relative growth is inactive: 1.

With `O=C(C[C@@H]1C=C[C@@H](NS(=O)(=O)c2ccc(F)cc2)[C@@H](CO)O1)N1CCC(Cc2ccccc2)CC1`, the relative growth is inactive: 1.01.

On to `C[C@H]1CN([C@@H](C)CO)C(=O)Cc2cc(NS(=O)(=O)c3cccs3)ccc2O[C@@H]1CN(C)Cc1ccc(-c2ccccc2)cc1`, for which the relative growth is inactive: 1.05.

`C[C@@H]1CCCCO[C@@H](CN(C)C(=O)Nc2ccc(C(F)(F)F)cc2)[C@H](C)CN([C@H](C)CO)C(=O)c2cc(N(C)C)ccc2O1`: the relative growth is inactive: 0.952.

As to `C[C@H](CO)N1C[C@H](C)[C@H](CN(C)S(=O)(=O)c2ccc(Cl)cc2)OCc2ccccc2-c2c(n(C)c3ccccc23)C1=O`, the relative growth is inactive: 1.01.

Take `CN1C(=O)c2cc(NC(=O)C3CCOCC3)ccc2OC[C@@H]2O[C@@H](CC(=O)NCc3ccc4c(c3)OCO4)CC[C@@H]21`: the relative growth is inactive: 0.99.

Consider `Cc1noc(C)c1S(=O)(=O)Nc1ccc2c(c1)C(=O)N([C@H](C)CO)C[C@@H](C)[C@H](CN(C)CC1CCCCC1)OCCCC[C@H](C)O2`, for which the relative growth was inactive: 0.903.

On to `CC(C)/C=C1\CC/C(=C\c2ccc(C(F)(F)F)cc2)C1=O`, for which the relative growth is inactive: 1.02.

As for `COc1ccc(NC(=O)Nc2ccc3c(c2)C(=O)N([C@@H](C)CO)C[C@H](C)[C@H](CN(C)C(=O)Nc2ccc4c(c2)OCO4)OCCCC[C@H](C)O3)cc1`, the relative growth is inactive: 1.

For `Fc1cncnc1`, the relative growth is inactive: 1.

Take `CC(=O)O[C@H]1C=C[C@@H](O)C1`: the relative growth is inactive: 0.991.

For `COc1ccc(S(=O)(=O)Nc2ccc3c(c2)C(=O)N([C@H](C)CO)C[C@@H](C)[C@@H](CN(C)Cc2ccccc2)OCCCC[C@H](C)O3)cc1`, the relative growth is inactive: 1.01.

With `Cc1noc(C)c1NC(=O)N[C@@H]1C=C[C@H](CC(=O)NCCCN(C)C)O[C@@H]1CO`, the relative growth was inactive: 0.995.

Turning to `C[C@H]1CN([C@@H](C)CO)S(=O)(=O)c2ccc(-c3ccc(C(=O)N(C)C)cc3)cc2O[C@@H]1CN(C)C(=O)C1CCC1`, the relative growth was inactive: 1.

As for `O=C(NCC(F)(F)F)[C@@H]1[C@@H](CO)[C@@H]2Cn3c(cccc3=O)[C@H]1N2C(=O)C1CCC1`, the relative growth is inactive: 0.975.

On to `CCNC(=S)N1CCCC[C@@H]1CO`, for which the relative growth is inactive: 0.986.

Regarding `CCCNC(=O)Nc1ccc2c(c1)OC[C@@H](C)N(Cc1ccc(-c3ccccn3)cc1)C[C@@H](C)[C@@H](OC)CN(C)C2=O`, the relative growth is inactive: 1.01.
